According to PubChem BioAssay AID485313 (National Center for Advancing Translational Sciences (NCATS), 2010):
Values joined by “and” are separate entries in the source; they are usually repeats but may differ in a detail not shown here. Equal entries are not always repeated. Screen size: about 320,000 compounds; about 7,600 (2.4%) were called active. The shares of active, inactive and inconclusive entries below differ from those in the screen. Calls follow the shape of the dose curve; as a rule, active = well fitted activation curve with a large enough effect; inconclusive = small, poorly fitted or top-dose-only effect; inactive = no such curve, though single readings can be large or run the other way. Potencies of inconclusive entries are doubtful fits and often do not repeat.

test: qHTS Assay for NPC1 Promoter Activators; conditions: Huh7 NPC1 promoter luciferase reporter, 24 h; series mostly up to 9.22 µM; activation: at the top concentration; also: nearly all actives have a fitted effect of over 60% in size;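 as to activation: reporter is driven by a mutant NPC1 promoter; % of control where 0% means no effect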
In short: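 Quantitative HTS used a cell-based reporter: Huh7 cells stably bearing the NPC1 promoter upstream of luciferase were treated with compounds for 24 h, and promoter activation was read as luminescence.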
Potency is read from the fitted curve at half-maximal effect; tags tell the direction and shape of the fitted curve.

Compound | Potency | activation
CCOc1ccc(-c2nnc(N)s2)cc1 | inconclusive: 3.55 µM [activator, partial curve] | 
Cc1[nH]n(-c2nc(-c3cccc([N+](=O)[O-])c3)cs2)c(=O)c1C | inconclusive: 3.98 µM [activator, single point] | 
CC(C)C(=O)Nc1cccc(C(=O)Nc2nnc(C(C)C)s2)c1 | active: 2.82 µM | 
Cc1ccc(/C=N/NC(=S)NC2CCCCC2)o1 | inconclusive: 2.82 µM [activator, partial curve] | 
CC(Cc1ccco1)NC(=O)c1cccc(S(=O)(=O)N(C)C)c1 (stereo not given) | inconclusive: 3.55 µM [activator, single point] | 
Cc1cc(C)cc(N(CC(=O)NC2CCCC2)C(=O)CNC(=O)c2cccs2)c1 |  | inactive: -4.55%
COc1cc(N)ccc1NC(=O)c1cc2ccccc2o1 | active: 3.98 µM | 
CN(C)/C=C1\N=C(c2ccccc2)OC1=O |  | inactive: 10.5%
N/C(=N\OC(=O)Nc1ccccc1)c1ncc(C(F)(F)F)cc1Cl |  | inactive: 23.9%
O=C(/C=C/c1ccc(Cl)cc1)N(Cc1cccs1)C1CCS(=O)(=O)C1 (stereo not given) |  | inactive: -7.54%
O=C(NCCc1c[nH]c2ccccc12)C(=O)NCC1OCCN1S(=O)(=O)c1ccc(Cl)cc1 (stereo not given) |  | inactive: 1.55%
Cc1ccc(NC(=S)NCCC2=CCCCC2)cc1 | inconclusive: 3.16 µM [activator, partial curve] | 
COc1ccc(OC)c(/C=N/NC(=O)c2c(C)nc3ccc(C)cn23)c1 |  | inactive: -4.4%
COCCOC(=O)c1[nH]c2c(c1C)C(=O)C(C(=O)OC)C(C)C2 (stereo not given) | inconclusive: 3.55 µM [activator, partial curve] | 
CC(=O)Nc1cccc(-c2csc(Nc3ccc(C)cn3)n2)c1 | active: 1 µM | 
CC(/C=C1\SC(=S)N(CCCC(=O)Nc2ccc(C(=O)O)cc2)C1=O)=C\c1ccccc1 |  | inactive: 16.7%
O=C(Nc1cc(Br)ccc1O)c1cc(-c2ccc3c(c2)OCO3)on1 | inconclusive: 1.58 µM [activator, partial curve] | 
O=C(c1cccs1)N1CCN(S(=O)(=O)Cc2ccccc2)CC1 |  | inactive: -7.15%
COc1ccc(-n2nc(C(=O)NCC(=O)N3CCN(c4ccccn4)CC3)c3ccccc3c2=O)cc1 | inconclusive: 5.62 µM [activator, single point] | 
On1c(-c2ccccc2)nc2ccc(Cl)cc21 | inconclusive: 2.51 µM [activator, partial curve] | 
CCOP(=O)(c1ccc(N(C)C)cc1)C(O)c1ccc(Cl)cc1 (stereo not given) | inconclusive: 3.16 µM [activator, single point] | 
COc1cccc(-c2nc3sc4c(c3c(=O)[nH]2)CCCCC4)c1 | inconclusive: 1.26 µM [activator, partial curve] | 
COc1ccccc1NC(=O)Nc1cccc(C(=O)O)c1 | inconclusive: 3.98 µM [activator, single point] | 
CCOc1ccc(NC(=O)CSc2nc3ccccc3nc2N2CC(C)OC(C)C2)cc1 (stereo not given) |  | inactive: -1.81%
COc1ccccc1-c1cnn2c(NC3CCCC3)cc(C)nc12 | inconclusive: 3.16 µM [activator, partial curve] | 

Compound | Potency | activation
COP(=O)(CC(=O)c1ccccc1)CC(=O)c1ccccc1 |  | inactive: -0.964%
O=C(COc1ccc(Cl)cc1Cl)c1ccc[nH]1 | inconclusive: 3.98 µM [activator, single point] | 
O=Cc1cc(N=Nc2ccccc2Cl)ccc1O | active: 2.51 µM | 
O=C(N/N=C/c1ccc([N+](=O)[O-])cc1)c1[nH]ncc1Br | active: 2 µM | 
CCOC(=O)N/N=C/c1cn(CCCOc2ccccc2)c2ccccc12 | inconclusive: 3.16 µM [activator, partial curve] | 
O=C(Nc1ccc(F)cc1Cl)c1ccc2c(=O)n3c(nc2c1)CCC3 | active: 3.16 µM | 
CCSc1nnc2nc3[nH]c4c(C)cccc4c3nn12 | inconclusive: 6.31 µM [activator, single point] | 
COc1cccc(NC(=O)Nc2nc(SC)ns2)c1 | active: 2.82 µM | 
CCOC(=O)c1nn(-c2ccc(Cl)cc2)cc1O | inconclusive: 5.62 µM [activator, single point] | 
O=C(CSc1nnc(-c2ccccn2)o1)Nc1ccccc1Cl | inconclusive: 0.501 µM [activator, partial curve, poor fit] | 
CCc1ccc(NC(=O)N2CCCCCC2)cc1 | active: 2.24 µM | 
Cc1cccnc1NC(=O)Nc1ccccc1 | inconclusive: 2.82 µM [activator, partial curve] | 
Cc1cc(O)ccc1Nc1nc(-c2cccs2)cs1 | inconclusive: 3.55 µM [activator, single point] | 
Cc1ccc(NC(=O)Cc2c[nH]c3ccccc23)cc1S(=O)(=O)N1CCCCCC1 |  | inactive: -1.94%
Cc1ccc(-c2n[nH]c(=S)n2/N=C/c2c(C)nn(-c3ccccc3)c2C)cc1 |  | inactive: -4.53%
Cc1oncc1C(=O)Nc1ccc(C(F)(F)F)cc1 | inconclusive: 562 nM [activator, full curve] and inconclusive: 1.84 µM [activator, partial curve] | 
O=C(Nc1nc(-c2ccc(Cl)s2)cs1)c1ccco1 | inconclusive: 3.16 µM [activator, partial curve] | 
Cn1c(-c2ccccc2)cnc1SCC(=O)N1CCCCC1 | active: 0.398 µM | 
Fc1cccc2sc(Nc3nc4ccccc4s3)nc12 | inconclusive: 6.31 µM [activator, single point] | 
COc1ccc(CCNC(=O)CNC(=O)Cn2ccc3ccccc3c2=O)cc1OC |  | inactive: -1.08%
CC(Sc1nncs1)C(=O)Nc1ccc2c(c1)OCCO2 (stereo not given) | inconclusive: 5.62 µM [activator, single point] | 
C/C=C(/C)C(=O)Nc1cccc(C2=NOC3(C2)C[C@H](C(N)=O)N(C(=O)Cc2ccc([N+](=O)[O-])cc2)C3)c1 (stereo not given in full) |  | inactive: -0.866%
CNC(=O)c1csc(-c2ccc(C)cc2)n1 | inconclusive: 3.16 µM [activator, single point] | 
COc1cccc(CN(C)Cc2nc(Cc3ccccc3Cl)no2)c1 |  | inactive: -2.78%
Cc1cc(NC(=O)Cc2ccccc2C)no1 | inconclusive: 5.62 µM [activator, single point] | 
